Test results published in FireProtDB (doi:10.1093/protein/8.10.1023).

Details: Gallus gallus; pH 5.5; 35 °C; GdnHCl; Fluorescence; potassium phosphate 0.05 M; reversible: yes

## Lysozyme C wild type (sequence not shown)
  denaturant midpoint (higher = more stable): 3.69 M
  unfolding free energy: 10.4 kcal/mol
